Results from PubChem BioAssay AID686978 (National Center for Advancing Translational Sciences (NCATS), 2013).
Values joined by “and” are separate entries in the source; they are usually repeats but may differ in a detail not shown here. Equal entries are not always repeated. Out of some 420,000 compounds screened, about 64,000 (15%) were called active. The shares of active, inactive and inconclusive entries below differ from those in the screen. Calls come from the whole dose curve; as a rule, active = well fitted inhibition curve with a large enough effect; inconclusive = small, poorly fitted or top-dose-only effect; inactive = flat fitted curve, though single readings scatter. Potencies of inconclusive entries are left out as doubtful fits.

Test: qHTS for Inhibitors of human tyrosyl-DNA phosphodiesterase 1 (TDP1): qHTS in cells in absence of CPT; note: nearly all actives have a fitted effect of over 55% in size
Settings: DT40 Tdp1-/- hTDP1 cells, no CPT, ATP luminescence, 48 h; activity change, negative = growth inhibition: at 46.2 µM (top of the series)
Method in brief: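 Seeded 400 DT40-hTDP1 cells/well (vehicle DMSO, no 20 nM CPT); pinned compounds; ≥48 hr at 37 °C; CellTiter-Glo luminescence as viability measure.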
% is set by controls: 0 for no effect and ±100 for the full control effect; potency is the fitted concentration of half-maximal effect; tags give direction and shape of the fitted curve.

Question: With CCOc1cc(NC(=S)NC)c(OCC)cc1NC(=O)c1ccc(OC)cc1 as the molecule, how does the Potency read?
Answer: The Potency was inconclusive [inhibitor, single point].

Question: Which Potency does the source give for CCOC(=O)c1ccc(NS(=O)(=O)c2ccc(-c3cc(C)no3)cc2)cc1 here?
Answer: Its Potency is inconclusive [inhibitor, single point].

Question: Which Potency does the source give for COc1ccc([C@H]2CC(=O)C[C@@H](CCn3cc(-c4ccccc4)nn3)O2)cc1 here?
Answer: The Potency was inconclusive [inhibitor, partial curve].

Question: Which Potency does the source give for C=CCn1c(C)nnc1SCC(=O)N1c2ccccc2NC(=O)C1(C)C here?
Answer: Its Potency is inconclusive [inhibitor, partial curve, poor fit].

Question: For COc1ccc(/C=C2\CCCC3C2=NN(C(=O)CSc2n[nH]c(N)n2)C3c2ccc(OC)cc2)cc1 (stereo not drawn), which Potency is on record?
Answer: The Potency was inconclusive [inhibitor, single point].

Question: With CCC(C)(C)NC(=O)C(c1ccccc1F)N(Cc1ccco1)C(=O)c1csnn1 (stereo not drawn) as the molecule, how does the Potency read?
Answer: The Potency was inconclusive [inhibitor, single point].

Question: With Cc1ccc(OCC(=O)N/N=C/c2c[nH]c3ccccc23)c([N+](=O)[O-])c1 as the molecule, how does the Potency read?
Answer: Its Potency is inconclusive [inhibitor, single point].

Question: For O=C(NCc1ccccc1)C(C1CC1)n1c(=O)c(-c2cc3ccccc3[nH]2)nc2ccccc21 (stereo not drawn), which Potency is on record?
Answer: The Potency was inconclusive [inhibitor, single point].

Question: For Cc1cccc(OCC(=O)N2CCN(C(=O)COc3ccc(Cl)cc3)CC2)c1, which Potency is on record?
Answer: Its Potency is inconclusive [inhibitor, single point].

Question: For CCOC(=O)[C@]12CCCC=C1N(CCC1=CCCCC1)C(=O)[C@H](CC(=O)NCc1cccc(C(F)(F)F)c1)C2, which Potency is on record?
Answer: Its Potency is inconclusive [inhibitor, single point].

Question: For CCOC(=O)c1c(NC(=S)Nc2ccc(Cl)cc2)sc(C)c1C, which Potency is on record?
Answer: Its Potency is “inactive”.

Question: Which Potency does the source give for Cc1ccc(CNC(=O)C2CCN(S(=O)(=O)N3CCOCC3)CC2)cc1 here?
Answer: The Potency was “inactive”.

Question: Which Potency does the source give for CC[C@@H](C)[C@@H](CO)NC(=O)[C@H]1O[C@@H](n2cnc3c(N)ncnc32)[C@H](O)[C@@H]1O here?
Answer: The Potency was “inactive”.

Question: For Cc1nc2ccccc2c(=O)n1-c1ccc(NC(=O)c2cccc([N+](=O)[O-])c2)cc1, which Potency is on record?
Answer: Its Potency is active: 20.6 µM.

Question: Which activity change, negative = growth inhibition does the source give for O=C(Nc1cccc2nsnc12)c1ccc(-c2ccc(Br)cc2)o1 here?
Answer: The activity change, negative = growth inhibition was inconclusive: -30.2% [inhibitor].

Question: Which Potency does the source give for O=C(Nc1ccc(Br)cc1)c1cccc2c1C(=O)N(C1CCCCC1)C2 here?
Answer: The Potency was “inactive”.

Question: For CSc1ccccc1NC(=O)CN(C)CC(=O)c1c(C)[nH]c2ccccc12, which Potency is on record?
Answer: Its Potency is inconclusive [inhibitor, single point].

Question: With O=C(Nc1ccon1)c1cc(-c2ccccc2)nc2ccccc12 as the molecule, how does the Potency read?
Answer: The Potency was inconclusive [inhibitor, single point].

Question: Which Potency does the source give for O=C(c1ccc(COc2ccccc2[N+](=O)[O-])o1)N1CCCCC1 here?
Answer: Its Potency is inconclusive [inhibitor, partial curve].

Question: For CCC(COC(=O)Nc1cccc(C)c1)NC(=O)OCC(C)C (stereo not drawn), which Potency is on record?
Answer: Its Potency is inconclusive [inhibitor, single point].

Question: With CCN1/C(=C\C=C2\C(=O)N(C)C(=S)N2C)Sc2ccccc21 as the molecule, how does the Potency read?
Answer: Its Potency is inconclusive [inhibitor, single point].

Question: With Cc1noc(/C=C/N(C)C)c1S(=O)(=O)N1CCCC(C(=O)NC2CCCCC2C)C1 (stereo not drawn) as the molecule, how does the Potency read?
Answer: Its Potency is active: 20.6 µM.

Question: For O=C(c1cc(C(F)(F)F)cc(C(F)(F)F)c1)N1CCC2(CCCN(c3ccncc3)C2)CC1, which Potency is on record?
Answer: The Potency was active: 20.6 µM.

Question: With COc1cc(C)c(C#N)c(OC)n1 as the molecule, how does the Potency read?
Answer: The Potency was “inactive”.

Question: Which Potency does the source give for COc1ccccc1CCNC(=O)c1ccc(-c2nc(CSc3ccc(C)cc3)c(C)o2)cc1 here?
Answer: The Potency was active: 8.2 µM.

Question: For COc1ccc(Cn2ccc3nc(C)c(C(=O)Nc4cc(C)cc(C)c4)cc3c2=O)cc1, which Potency is on record?
Answer: The Potency was inconclusive [inhibitor, single point].

Question: Which Potency does the source give for COC(=O)c1cn[nH]c1NC(=S)Nc1ccc(C)cc1Cl here?
Answer: The Potency was inconclusive [inhibitor, single point].

Question: For CCN(CC)c1ccc(/C=N/NC(=O)c2c(Cl)c(C)nn2C)cc1, which Potency is on record?
Answer: The Potency was inconclusive [inhibitor, single point].

Question: With CCCCC(=O)NNC(=S)NC(=O)c1ccc([N+](=O)[O-])cc1 as the molecule, how does the Potency read?
Answer: Its Potency is active: 29.1 µM.

Question: For COc1ccc(CNC(=O)CN(Cc2ccc(Cl)cc2)S(=O)(=O)c2ccccc2)cc1, which Potency is on record?
Answer: Its Potency is inconclusive [inhibitor, single point].

Question: With COc1ccc(CCNCc2cc3ccc(C)cc3[nH]c2=O)cc1OC as the molecule, how does the Potency read?
Answer: The Potency was “inactive”.

Question: For CSc1ccc(CCNC(=O)CCn2c(=O)c3cccn3c3ccc(F)cc32)cc1, which Potency is on record?
Answer: The Potency was inconclusive [inhibitor, partial curve].

Question: Which Potency does the source give for O=C(Cc1ccccc1)c1c[nH]c(C(=O)NC2CCCC2)c1 here?
Answer: The Potency was “inactive”.

Question: Which Potency does the source give for CCCN1CCC(=O)N([C@H](COc2ccccc2)c2ccccc2)CC1 here?
Answer: Its Potency is active: 12.6 µM and active: 20.6 µM.

Question: With Cc1ccc(-c2nc(N=Nc3ccc(O)cc3)n[nH]2)cc1 as the molecule, how does the Potency read?
Answer: Its Potency is inconclusive [inhibitor, partial curve, poor fit].

Question: For O=C(NCCCN1CCOCC1)c1ccc2nc(Cc3cccc(Cl)c3)oc2c1, which Potency is on record?
Answer: Its Potency is “inactive”.

Question: With COc1cc(OC)cc(C(=O)Nc2cc3c(cc2N2CCCC2)n(C)c(=O)c(=O)n3C)c1 as the molecule, how does the Potency read?
Answer: The Potency was inconclusive [inhibitor, partial curve].

Question: Which Potency does the source give for Cc1ccc(SCC(=O)Nc2ccc3oc(-c4ccccc4C)nc3c2)cc1 here?
Answer: The Potency was inconclusive [inhibitor, single point].

Question: For COC(=O)c1cc(Br)ccc1NC(=O)CSCc1c(C)noc1C, which Potency is on record?
Answer: The Potency was inconclusive [inhibitor, single point].

Question: Which Potency does the source give for COc1ccc(N2CSC3=C(C#N)C(c4cc(OC)c(OC)cc4OC)CC(=O)N3C2)c(OC)c1 (stereo not drawn) here?
Answer: Its Potency is inconclusive [inhibitor, single point].

Question: For CCN(CC)CCOC(=O)c1c(C)oc2ccc(OC)cc12, which Potency is on record?
Answer: The Potency was “inactive”.

Question: For CN(C)CCCN(C(=O)c1cc2cc([N+](=O)[O-])ccc2s1)c1nc2cc3c(cc2s1)OCCO3, which Potency is on record?
Answer: Its Potency is active: 2.31 µM.

Question: With Cc1noc(C)c1COc1ccc(C(=O)N2CCC(C)CC2)cc1 as the molecule, how does the Potency read?
Answer: The Potency was inconclusive [inhibitor, single point].

Question: For O=C(c1ccccc1)c1ccc(-n2ccnc2)c([N+](=O)[O-])c1, which Potency is on record?
Answer: Its Potency is active: 20.6 µM.

Question: Which Potency does the source give for O=C(Oc1ccccc1Cl)C1CCN(C(=O)c2ccc(F)cc2)CC1 here?
Answer: The Potency was “inactive”.

Question: With COc1ccccc1OCC(=O)N1CCN(C(=O)c2ccco2)CC1 as the molecule, how does the Potency read?
Answer: The Potency was “inactive”.

Question: With OC(Cc1cccnc1)(c1ccccc1)c1ccccc1 as the molecule, how does the Potency read?
Answer: The Potency was inconclusive [inhibitor, partial curve, poor fit].

Question: With Cc1ccc2c(CC(=O)Nc3c(C(=O)c4ccc(C)c(F)c4)oc4ccccc34)coc2c1 as the molecule, how does the Potency read?
Answer: The Potency was inconclusive [inhibitor, single point].

Question: Which Potency does the source give for CN(C(=O)c1ccc(NC(=O)Cc2ccc(NC(=O)C3CCN(C(=O)c4ccccc4)CC3)cc2)cc1)C1CC1 here?
Answer: Its Potency is inconclusive [inhibitor, single point].

Question: For Cc1cccc2c(C(=O)N3CCCCC3)cc(-c3ccccc3)nc12, which Potency is on record?
Answer: The Potency was inconclusive [inhibitor, single point].

Question: Which Potency does the source give for Cc1ccc(CNC(=O)c2cc(C)nc3c2c(C)nn3-c2ccc(C)cc2)cc1 here?
Answer: The Potency was inconclusive [inhibitor, single point].

Question: Which Potency does the source give for Cc1c(C)n(CCCN(C)C)c2ncnc(NC3CCCCC3)c12 here?
Answer: The Potency was inconclusive [inhibitor, single point].

Question: For CCCCCCCCCCCCCC(=O)O[C@H](CC(=O)O)C[N+](C)(C)C, which Potency is on record?
Answer: Its Potency is “inactive”.

Question: For Cc1noc(C)c1C(=O)N1CCCC(C(=O)c2ccc(Cl)cc2)C1 (stereo not drawn), which Potency is on record?
Answer: The Potency was inconclusive [inhibitor, partial curve, poor fit].

Question: For O=C(C1CCN(S(=O)(=O)c2cccc3cccnc23)CC1)N1CCCCC1, which Potency is on record?
Answer: The Potency was “inactive”.

Question: For CN(c1ccccc1)c1nc(N)c([N+](=O)[O-])c(NCc2ccco2)n1, which Potency is on record?
Answer: Its Potency is “inactive”.

Question: With O=C(Nc1cccc(S(=O)(=O)N2CCCCC2)c1)c1ccc2ncsc2c1 as the molecule, how does the Potency read?
Answer: Its Potency is inconclusive [inhibitor, single point].

Question: With CCN(CC)CCCCNc1ncc2cc(-c3cc(OC)cc(OC)c3)c(NC(=O)NC(C)(C)C)nc2n1 as the molecule, how does the Potency read?
Answer: Its Potency is inconclusive [inhibitor, single point].

Question: With CSCCC(NC(=O)COc1ccccc1)C(=O)NC1CCC(C)CC1 (stereo not drawn) as the molecule, how does the Potency read?
Answer: Its Potency is inconclusive [inhibitor, partial curve].

Question: Which Potency does the source give for O=C(Nc1cccc(Cl)c1Cl)C1CC(=O)N(c2ccc(Br)cc2)C1 (stereo not drawn) here?
Answer: The Potency was “inactive”.

Question: For O=c1cc(-c2ccccc2)oc2c1ccc1ccccc12, which Potency is on record?
Answer: Its Potency is inconclusive [inhibitor, full curve, poor fit].

Question: Which Potency does the source give for CC1CCCCN1C(=S)NC(=O)c1ccccc1 (stereo not drawn) here?
Answer: Its Potency is inconclusive [inhibitor, single point].

Question: For CCC(=O)c1ccc(N2CCN(C(=O)c3ccccc3Br)CC2)c(F)c1, which Potency is on record?
Answer: The Potency was active: 10.3 µM.

Question: With Cc1ccc(Cn2nc(C)cc2C(=O)Nc2ccc(Cl)cc2)cc1 as the molecule, how does the Potency read?
Answer: Its Potency is inconclusive [inhibitor, single point].

Question: For CCc1ccc2c(CN(C)Cc3ccccc3OC)cc(=O)oc2c1, which Potency is on record?
Answer: The Potency was inconclusive [inhibitor, single point].

Question: With O=C(O)c1ccc(NC(=O)C2CCCCC2)cc1 as the molecule, how does the Potency read?
Answer: The Potency was “inactive”.

Question: Which activity change, negative = growth inhibition does the source give for CCC(=O)N1CCc2cc(S(=O)(=O)N(C)c3ccc(Br)cc3)ccc21 here?
Answer: The activity change, negative = growth inhibition was inconclusive: -32.7% [inhibitor].

Question: For CCOc1ccc(NC(=O)CN(C)Cc2cc(=O)n3c(-c4ccccc4)csc3n2)cc1OCC, which Potency is on record?
Answer: Its Potency is inconclusive [inhibitor, single point].
